Structures are written as SMILES. The campaign covered roughly 340,000 compounds. About 6,900 (2%) were called active. Rule as the data show it: active = inhibition above about 30%; inactive = below that, where a call was filed. The list shows a part of the results, in another mix than the full data. The source gives no active or inactive call for entries shown without one.

The results in this text go back to PubChem BioAssay AID485344 (National Center for Advancing Translational Sciences (NCATS), 2010).

Chain of UniProt P14416 (P14416 whole entry, looked up): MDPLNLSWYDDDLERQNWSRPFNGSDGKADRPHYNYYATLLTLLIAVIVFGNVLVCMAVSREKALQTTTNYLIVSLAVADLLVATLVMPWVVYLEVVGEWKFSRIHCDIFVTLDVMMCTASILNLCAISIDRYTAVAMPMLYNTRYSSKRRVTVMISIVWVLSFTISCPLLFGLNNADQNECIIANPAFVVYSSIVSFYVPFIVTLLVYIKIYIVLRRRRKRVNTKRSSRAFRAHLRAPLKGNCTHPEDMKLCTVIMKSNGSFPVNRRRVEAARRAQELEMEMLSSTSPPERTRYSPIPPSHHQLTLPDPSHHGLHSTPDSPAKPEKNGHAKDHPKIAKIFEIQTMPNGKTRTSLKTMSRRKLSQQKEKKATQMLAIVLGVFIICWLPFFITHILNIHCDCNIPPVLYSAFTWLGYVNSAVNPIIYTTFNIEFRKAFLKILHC

The target in the assay is D(2) dopamine receptor (Homo sapiens) (UniProt P14416). The assay can be described thus: HTS Assay for Allosteric Antagonists of the Human D2 Dopamine Receptor: Primary Screen for Antagonists. Also: 0% is about no effect. The conditions noted are these: HEK293 TREx D2 cells, calcium flux, dopamine EC80; at 10 µM; stronger effect = higher value. In outline:
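Inhibition of EC80 dopamine-driven calcium flux, recorded kinetically, defines activity here; cells are a tetracycline-induced HEK293 T-REx line expressing force-coupled D2.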
On the technique in general: Calcium flux is commonly read through the fluorescence of an indicator in the cells.
In the case of `Cc1ccc(NC(=O)C2CCCN2S(=O)(=O)c2cccc3cccnc23)c(C)c1` (stereo unspecified), the inhibition – broadly, the change of the read-out against control, counted positive when it falls – stood at 24.7%. As to `O=C(Nc1cccc(OCc2cc(=O)n3ccccc3n2)c1)Nc1cccc(C(F)(F)F)c1`, the inhibition was 7.11%. Turning to `COCCn1c(=N)c(C(=O)NC2CCCC2)cc2c(=O)n3cc(C)ccc3nc21`, the inhibition stood at 3.59%. Under `Cc1cccc(C)c1NC(=O)CCC(=O)N1Cc2ccccc2Oc2ncccc21` stands -0.711%. With `CCC(=O)N1CCc2cc(Br)cc(S(=O)(=O)CCC(=O)Nc3ccc(Cl)cc3)c21`, the inhibition was found to be 2.81%. For `CCOC(=O)c1cc(-c2ccc(C)cc2)n(CCC(=O)NCCc2ccc(C)cc2)c1C`, the inhibition turned out to be 4.09%. In the case of `COc1cc(-c2cc3n(C)c(C)c(CCC(=O)NC4CCCCC4)c(=O)n3n2)cc(OC)c1OC`, the inhibition was determined as 20.3%. Under `CCC(=O)N1CCc2cc(Br)cc(S(=O)(=O)N3CCN(c4cc(C)ccc4C)CC3)c21` stands 12.5%; under `CCN(CC)CCNC(=O)c1cn(CC)c2ccc(S(=O)(=O)N3CCc4ccccc4C3)cc2c1=O`, 6.78%.

For the compound `O=C(NC1CCN(Cc2ccccc2)CC1)c1ccc(Cn2c(=O)c3ccccc3n(Cc3cccc(F)c3)c2=O)cc1`, the inhibition was determined as 23.5%. As to `COc1ccc(Oc2nc3c(c(=O)n(C)c(=O)n3C)n2Cc2ccc(Cl)cc2Cl)cc1`, the inhibition was -6.17%. With `O=C(COc1ccc(Br)cc1)NCC1COc2ccccc2O1` (stereo unspecified), the inhibition was active: 33.4%. Regarding `COc1ccc(OC)c(CC2C(=O)Nc3ccc(Br)cc32)c1` (stereo unspecified), the inhibition turned out to be 8%.

As to `CCOC(=O)c1c(C)oc2ccc(N(C(C)=O)S(=O)(=O)c3c(C)cc(C)cc3C)cc12`, the inhibition is -13.5%. In the case of `COC(=O)c1cc2sccc2n1Cc1ccc(F)cc1Cl`, the inhibition is -11.4%. Consider `Cc1cc(F)ccc1S(=O)(=O)Nc1cc2c(C(=O)O)c(C)oc2c2ccccc12`, for which the inhibition is 4.37%.

Take `Cc1c(C(=O)Nc2ccc3c(c2)OCO3)sc2nc(-c3ccccc3)cn12`: the inhibition was active: 66.7%. As to `Cc1cc(N2CCN(c3cc(Cl)ccc3C)CC2)n2nc(-c3ccccc3)nc2n1`, the inhibition came to 2.85%. Take `CCCCNC(=O)C1CCC(Cn2c(=O)c3sccc3n(CC(=O)Nc3ccccc3)c2=O)CC1` (stereo unspecified): the inhibition turned out to be 17.7%. Consider `N#Cc1ccc(NC(=O)C2Cc3ccccc3CN2S(=O)(=O)c2ccc(F)cc2)cc1` (stereo unspecified), for which the inhibition came out at 3.54%. On to `CCCOC(=S)NC(=O)c1sc2ccccc2c1Cl`, for which the inhibition was active: 30.9%. Then `O=C(COc1ccc(F)cc1)Nc1ccc2nc(SCCOc3ccccc3)sc2c1`, with 10.8%. Take `O=C(CSCn1nnc2c(=O)[nH]c(Cc3ccc(F)cc3)nc21)Nc1ccccc1`: the inhibition amounted to 10.5%. With `COc1ccc(NC(=O)C2=CC(c3ccc4c(c3)OCO4)=NS(=O)(=O)N2C)cc1OC`, the inhibition was 15.3%.

Consider `O=S(=O)(c1ccc(Cl)cc1)c1nc(-c2ccccc2F)oc1NCc1ccccc1`, for which the inhibition was 4.6%. For the compound `Cc1ccc(Sc2ccc(N3CCC(C(=O)Nc4ccc(Cl)cc4)CC3)nn2)cc1`, the inhibition is 13.6%. Then `CCc1ccc(C(=O)c2cn(CC(=O)NCc3ccc(C)cc3)c3nc(C)ccc3c2=O)cc1`, with -1.05%; and `CCc1nn(CC(=O)NCCCc2ccccc2)c(=O)c2cc3cc(F)ccc3n12`, with -1%; and `O=C(Nc1nc2c(F)cccc2s1)c1ccc2c(c1)OCCO2`, with -10.8%. As to `Cc1ccc(CNC(=O)Cn2c(-c3cccs3)cc3cc(Cl)ccc32)cc1`, the inhibition was determined as 6.02%. As to `CC(=O)c1ccc(NC(=O)c2cc3c(=O)oc4ccc(C)cc4c3s2)cc1`, the inhibition was -13.2%. For the compound `Cc1ccc(CNC(=O)c2ccc3c(c2)NC(=O)C(CS(=O)(=O)Cc2cccc(F)c2)N3)cc1` (stereo unspecified), the inhibition amounted to 12.1%.

With `Cc1ccc(N2C(=O)C(CC(=O)Nc3ccc(F)cc3)N(Cc3ccc4c(c3)OCO4)C2=O)cc1` (stereo unspecified), the inhibition is 20.9%.

Turning to `COc1cc([C@@H]2Nc3c(F)cccc3[C@@H]3C=CC[C@@H]32)cc(Br)c1OC`, the inhibition was -3.56%. Consider `Cc1c(C(=O)O)oc2c1-c1nn(Cc3ccccc3Cl)cc1CC2`, for which the inhibition was -0.0492%.

As to `COc1ccc2c(Sc3ccc(C)cc3)c(C(=O)NC(C)c3ccccc3)[nH]c2c1` (stereo unspecified), the inhibition came to 18.8%. In the case of `Cc1ccc(NC(=O)CC(c2ccc(F)cc2)N2Cc3ccccc3C2=O)cc1C` (stereo unspecified), the inhibition was 0.968%. Then `Cc1c(C(=O)NCc2ccc(Cl)cc2)sc2nc3n(c(=O)c12)CCC3`, with 19.3%. As for `COc1ccc(-c2nc3n(n2)C(c2ccccc2)C(C(=O)Nc2cccnc2)=C(C)N3)cc1` (stereo unspecified), the inhibition was -21.5%.

Consider `COCCNC(=O)CN1C(=O)CCn2nc(-c3cn(C)c4ccccc34)cc21`, for which the inhibition came to 0.325%.

Regarding `CCS(=O)(=O)N1CCc2cc(C(=O)NCc3ccc(C)cc3)ccc21`, the inhibition was 19.6%. Turning to `O=C(CSc1nc2c([nH]c3ccccc32)c(=O)n1-c1ccc(F)cc1)Nc1ccc2c(c1)OCCO2`, the inhibition was -6.84%. Regarding `Cc1cccc(-c2cc(-c3ccccc3)nc(SCC(=O)Nc3ccccc3)c2C#N)c1`, the inhibition was 5.37%.

`Cc1ccc(S(=O)(=O)N(CC(O)Cn2c3ccccc3c3ccccc32)c2cccc(C(=O)NCCO)c2)cc1` (stereo unspecified): the inhibition was found to be 10.9%. Turning to `O=C(O)c1cnn(-c2nc(-c3cccc([N+](=O)[O-])c3)cs2)c1C(F)(F)F`, the inhibition is active: 31.2%. `CCC(Cn1nnc2ccccc2c1=O)NC(=O)Nc1ccccc1Cl` (stereo unspecified): the inhibition is 8.08%. For the compound `Cn1cccc1-c1cc2n(n1)CCC(=O)N2CC(=O)Nc1ccc(F)cc1Cl`, the inhibition was -12.9%.

Turning to `CCCCOc1ccc(C(=O)Nc2ccc3c(c2)N(C(C)=O)CCC3)cc1`, the inhibition amounted to 0.654%.

`CCOc1cc(CNc2ccc(O)cc2)cc(Cl)c1OCc1ccccc1`: the inhibition was -1.74%. On to `Cc1ccc(S(=O)(=O)N2CCCc3cc(NC(=O)c4cccc(Cl)c4)ccc32)cc1`, for which the inhibition came out at 2%. `Cn1nc(-c2ccccc2F)c2cc(C(=O)N3CCN(c4ccccc4F)CC3)sc21`: the inhibition was 8.85%. Regarding `CCOc1ccc(NC(=O)c2cc3nc(-c4ccc(OC)cc4)cc(C(F)(F)F)n3n2)cc1`, the inhibition came to 10.5%.

Regarding `CCOC(=O)c1c(C)[nH]c(C)c1S(=O)(=O)N1CCC(C(=O)NCc2ccc(OC)cc2)CC1`, the inhibition stood at 0.223%. As for `COCCCNc1nc2c(-c3cccc(Br)c3)nnn2c2ccccc12`, the inhibition stood at 14.5%. Consider `CC(=O)c1coc2ccc(OCCN3CCCCC3)cc12`, for which the inhibition was active: 41.8%. Consider `CCC(=O)NCc1nc2ccccc2n1Cc1ccccc1`, for which the inhibition was found to be 2.94%.

Turning to `CCC(Sc1nc2ncccc2[nH]1)C(=O)Nc1ccccc1F` (stereo unspecified), the inhibition was -4.43%. Consider `COc1ccccc1NC(=O)N1CCCC1`, for which the inhibition is active: 33.1%. As for `O=C(OCC1CCCO1)c1ccc2c(c1)N(Cc1ccc(F)cc1)C(=O)c1ccccc1S2(=O)=O` (stereo unspecified), the inhibition was -3.25%. As for `COc1cc(OC)c(N(C)C(=O)c2cc3c(s2)-c2ccccc2OC3)cc1Cl`, the inhibition turned out to be 4.16%.

In the case of `COc1ccc2c(CNCc3cccs3)c(C(=O)O)n(Cc3ccccc3C)c2c1`, the inhibition was determined as 8.16%.
